For one experiment, the system named is H3N1 IAV. Kind of experiment: Electron microscopy of virus incubated with peptide. On the set-up: species or system Influenza A virus. The settings on record: 1 h 37°C.
The test system of a further experiment is IAV. The settings on record: ref Tripathi et al., 2013, cited from earlier work.
In a further experiment the test system is H1N1 virus. The class given is cell-based, Influenza A virus. The settings on record: H1N1, HD11 cells.
Experiment [1] concerns H1N1/PR8 (NA cleavage of fetuin, dependent on HA receptor binding). Kind of experiment: ELLA solid phase cleavage assay with fetuin. Particulars: 5 μM CATH-B1, IAV PR8, 2 h 37°C, pH 6; two independent experiments.
A further experiment relates to NA of H1N1/PR8. As to the kind of experiment: MUNANA neuraminidase activity assay. The settings on record: CATH-B1 0–40 μM, 1 h 37°C with IAV, then MUNANA 1 h; two independent experiments.

On to “LLGDFFRKSKEKIGKEFK RIVQRIKDFLRNLVPRTES [LL-37, human cathelicidin, 37 amino acids, used for comparison, reference compound]”, for which, in the experiment with H3N1 IAV (20 μM peptide), the “aggregation of viral particles (electron microscopy)” value (“aggregation of viral particles” below) is given as “some smaller aggregates were observed” and the “alteration of the viral structure (electron microscopy)” value (from here on “alteration of the viral structure”) was “no clear alteration of the viral structure”. In addition, in the experiment on IAV (in vitro), the “disruption of the IAV viral membrane” value was “directly induce disruption of the IAV viral membrane”. The “HA-receptor binding, virus binding to and uptake into cells” value in the experiment on IAV (Tripathi et al., 2015) was “did not inhibit HA-receptor binding and failed to inhibit virus binding to and uptake into cells”.

With “PIRNWWIRIWEWLNGIRK RLRQRSPFYVRGHLNVTSTPQP [CATH-B1]”, the “antiviral activity after mixing peptide and virus, then treatment with Capto Core 700 beads” value in the experiment with H1N1 virus (30 min 37°C pre-incubation, beads 20 min 4°C) is “the antiviral activity of CATH-B1 was maintained”. Also, the “antiviral effect when peptide is incubated with beads prior to virus addition” value with H1N1 virus is “very little antiviral effect”. The figures for the “aggregation of viral particles” value with H3N1 IAV (5 μM peptide) and in the experiment on H3N1 IAV (20 μM peptide) were “smaller aggregates were observed” and “large aggregates were observed”, respectively. Further, in the experiment on H3N1 IAV (20 μM peptide), the “alteration of the viral structure” value was “no clear alteration of the viral structure”. In addition, in experiment [1], the “cleavage of sialic acids on fetuin (ELLA)” value is “inhibited cleavage of sialic acids on fetuin”. Besides, the “inhibition of NA activity (MUNANA substrate)” value in the experiment with NA of H1N1/PR8 is given as “no inhibition of NA activity was observed”.

Turning to “RFGRFLRKIRRFRPKVTITIQGSARF [CATH-2, chicken cathelicidin, 26 amino acids]”, in the experiment with H3N1 IAV (20 μM peptide), the “aggregation of viral particles” value is “some smaller aggregates were observed” and the “alteration of the viral structure” value is recorded as “no clear alteration of the viral structure”.

Values taken from PMC7096384, “Antiviral Activity of Chicken Cathelicidin B1 Against Influenza A Virus” (Frontiers in Microbiology, 2020).
